Results taken from PubChem BioAssay AID504333 (National Center for Advancing Translational Sciences (NCATS), 2011).
Hit rate of the full screen: of about 360,000 compounds, about 16,000 (4.4%) were called active. Inconclusive means that the source gave no clear call. Such entries were picked first, then a sample of the others. The call rests on the fitted dose curve; in most records, active means well fitted inhibition curve with a large enough effect; inconclusive means small, poorly fitted or top-dose-only effect; inactive means no such curve, though single readings can be large or run the other way. Potencies beside an inconclusive call are fits to weak or partial responses and may not hold up.

molecular target: Bromodomain adjacent to zinc finger domain protein 2B (Homo sapiens) (UniProt Q9UIF8); test: qHTS Assay for Inhibitors of BAZ2B; settings: AlphaScreen BAZ2B-H3K14Ac peptide displacement; activity change, negative = inhibition: at 114 µM (top of the series); further: nearly all actives have a fitted effect of over 60% in size
Chain of UniProt Q9UIF8 (Q9UIF8 whole entry, looked up, the tested form may be a part): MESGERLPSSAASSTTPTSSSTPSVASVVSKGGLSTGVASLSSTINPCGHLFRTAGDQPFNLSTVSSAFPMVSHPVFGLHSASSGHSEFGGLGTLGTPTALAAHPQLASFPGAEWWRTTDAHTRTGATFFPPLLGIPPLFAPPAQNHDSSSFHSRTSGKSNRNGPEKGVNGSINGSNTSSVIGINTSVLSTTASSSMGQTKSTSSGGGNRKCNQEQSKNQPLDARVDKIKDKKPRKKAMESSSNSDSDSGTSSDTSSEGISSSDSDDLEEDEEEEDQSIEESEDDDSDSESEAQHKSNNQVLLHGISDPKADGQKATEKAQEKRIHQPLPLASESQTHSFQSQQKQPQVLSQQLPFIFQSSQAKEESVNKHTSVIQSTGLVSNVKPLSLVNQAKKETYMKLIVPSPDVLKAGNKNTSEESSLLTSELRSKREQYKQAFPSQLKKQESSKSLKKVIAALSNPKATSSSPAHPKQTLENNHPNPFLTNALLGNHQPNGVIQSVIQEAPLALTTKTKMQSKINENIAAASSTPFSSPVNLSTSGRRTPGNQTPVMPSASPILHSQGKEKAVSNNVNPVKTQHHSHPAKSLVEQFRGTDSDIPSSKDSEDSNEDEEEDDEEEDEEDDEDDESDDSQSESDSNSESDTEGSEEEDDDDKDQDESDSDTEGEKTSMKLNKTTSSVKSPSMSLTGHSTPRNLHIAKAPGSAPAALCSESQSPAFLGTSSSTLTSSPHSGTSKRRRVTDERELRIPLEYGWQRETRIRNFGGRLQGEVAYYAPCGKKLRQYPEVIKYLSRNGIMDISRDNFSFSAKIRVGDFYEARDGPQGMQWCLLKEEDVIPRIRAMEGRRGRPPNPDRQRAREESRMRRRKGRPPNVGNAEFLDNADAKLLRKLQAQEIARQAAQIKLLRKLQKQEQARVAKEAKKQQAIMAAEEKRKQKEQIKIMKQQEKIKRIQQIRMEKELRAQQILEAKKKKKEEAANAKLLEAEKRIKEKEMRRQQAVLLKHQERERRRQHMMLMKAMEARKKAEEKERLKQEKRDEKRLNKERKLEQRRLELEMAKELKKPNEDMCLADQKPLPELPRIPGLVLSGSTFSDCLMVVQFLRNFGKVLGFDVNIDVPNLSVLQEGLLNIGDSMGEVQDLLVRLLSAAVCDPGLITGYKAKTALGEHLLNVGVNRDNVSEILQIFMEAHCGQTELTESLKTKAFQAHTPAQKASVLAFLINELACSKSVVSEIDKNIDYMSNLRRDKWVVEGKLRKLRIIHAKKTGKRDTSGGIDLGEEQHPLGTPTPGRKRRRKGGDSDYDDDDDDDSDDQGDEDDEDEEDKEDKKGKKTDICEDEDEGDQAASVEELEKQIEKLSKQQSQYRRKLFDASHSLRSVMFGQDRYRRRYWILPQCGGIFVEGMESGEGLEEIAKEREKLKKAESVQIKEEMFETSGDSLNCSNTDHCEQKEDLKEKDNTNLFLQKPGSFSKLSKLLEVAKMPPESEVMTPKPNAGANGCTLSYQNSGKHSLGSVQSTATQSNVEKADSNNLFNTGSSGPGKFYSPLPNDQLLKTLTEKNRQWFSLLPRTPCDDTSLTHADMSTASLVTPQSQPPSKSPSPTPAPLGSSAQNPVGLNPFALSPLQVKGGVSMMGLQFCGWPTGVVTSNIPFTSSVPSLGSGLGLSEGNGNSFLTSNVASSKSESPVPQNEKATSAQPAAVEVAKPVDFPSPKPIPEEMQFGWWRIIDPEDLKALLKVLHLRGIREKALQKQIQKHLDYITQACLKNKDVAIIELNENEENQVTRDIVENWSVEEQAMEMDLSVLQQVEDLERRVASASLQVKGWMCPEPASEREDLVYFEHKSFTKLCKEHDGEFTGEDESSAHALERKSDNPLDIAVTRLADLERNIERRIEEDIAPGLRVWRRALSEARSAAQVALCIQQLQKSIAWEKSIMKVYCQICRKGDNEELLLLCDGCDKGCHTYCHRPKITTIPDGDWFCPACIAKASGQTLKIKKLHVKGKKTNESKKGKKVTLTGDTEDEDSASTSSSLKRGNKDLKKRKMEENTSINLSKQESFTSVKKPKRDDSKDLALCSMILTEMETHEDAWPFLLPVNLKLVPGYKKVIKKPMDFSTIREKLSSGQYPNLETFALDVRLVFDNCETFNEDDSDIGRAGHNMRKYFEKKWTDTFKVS
Procedure, shortened: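 AlphaScreen luminescence quantifies BAZ2B engagement of H3K14Ac peptide; the protein and biotinylated peptide are both at 50 nM final, buffer PBS pH 7.4 with 0.01% Tween-20, all steps at room temperature.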
On the % scale 0 is the no-effect control and ±100 the full control effect; potency means the concentration at half of the fitted maximal effect; tags describe the fitted curve by direction and shape.

Compound	activity change, negative = inhibition	Potency
O=C(N/C(=C\c1ccco1)C(=O)N1CCOCC1)c1ccco1	inactive: 3.89%	
Cc1nn(CC2CC2)c(=O)n1-c1ccc(Oc2ccccc2)cc1	inactive: -10.5%	
Cc1ccc(C)c(-c2nc3ccc(N)cc3[nH]2)c1		inconclusive: 31.6 µM [inhibitor, partial curve]
Oc1ccc(CN2CCC(Cc3ccccc3)CC2)c2cccnc12		active: 20 µM
CN1CCN(S(=O)(=O)c2ccc(N3CCN(c4ccccc4O)CC3)c([N+](=O)[O-])c2)CC1		inconclusive: 79.4 µM [inhibitor, single point]
CN(C)c1cccc(C(=O)NC2CCCc3ccccc32)c1 (stereo unspecified)		inconclusive: 50.1 µM [inhibitor, partial curve]
c1ccc2c(C3=NNC(=NC4CCCCC4)SC3)c[nH]c2c1		inconclusive: 44.7 µM [inhibitor, partial curve]
Cc1ccc(N(CC(C)C)S(=O)(=O)c2nnc(NC(=O)c3cccs3)s2)cc1	inactive: 12.6%	
O=C(N/N=C/c1ccc(C(=O)O)cc1)C1=NNC(c2ccccc2)(c2ccccc2)C1		inconclusive: 79.4 µM [inhibitor, partial curve]
O=C(CCS(=O)(=O)c1ccc(Br)cc1)NC1CCCC1		active: 50.1 µM
CC(=O)Nc1nnc(C)s1	inactive: 2.71%	
C=CCn1c(C)csc1=Nc1ccc(C(C)=O)cc1		active: 44.7 µM
C=CCOc1cccc(C2C(C(=O)c3ccc(C)o3)=C(O)C(=O)N2c2nccs2)c1 (stereo unspecified)		inconclusive: 89.1 µM [inhibitor, single point]
COc1ccc2cc(-c3[nH]ncc3CN3CCCC3c3nonc3C)ccc2c1 (stereo unspecified)		inconclusive: 56.2 µM [inhibitor, partial curve]
CCc1nc2ccc(C(=O)NCCCN3CCN(c4ccc(F)cc4)CC3)cc2nc1CC		inconclusive: 70.8 µM [inhibitor, single point]
CCn1c(CSc2nc3ccccc3[nH]2)nc2cc(C(=O)O)ccc21		inconclusive: 100 µM [inhibitor, single point]
O=[N+]([O-])c1cc(S(=O)(=O)Nc2ccccc2)ccc1NCc1cccnc1		inconclusive: 70.8 µM [inhibitor, single point]
C#CCOCCOCCOCCNc1nc(N2CCN(C(=O)[C@H]([C@@H](C)CC)n3cc([C@@H](N)Cc4ccc(O)cc4)nn3)CC2)nc(N2CCN(C(=O)[C@H]([C@@H](C)CC)n3cc([C@@H](N)CC(C)C)nn3)CC2)n1		inconclusive: 79.4 µM [inhibitor, single point]
O=[N+]([O-])c1cc(C(F)(F)F)ccc1NCCc1c[nH]c2ccc(O)cc12		active: 39.8 µM
CCN(CC)c1ccc(CNc2nc3ccccc3n2CCN2CCOCC2)cc1		inconclusive: 50.1 µM [inhibitor, partial curve]
CCN(CC(=O)NC1CCS(=O)(=O)C1)C(=O)c1cc(OC)c(OC)c(OC)c1 (stereo unspecified)	inactive: -0.233%	
CN(C)CCCN(C(=O)c1ccc(S(=O)(=O)N(C)Cc2ccccc2)cc1)c1nc2cc3c(cc2s1)OCO3		inconclusive: 39.8 µM [inhibitor, partial curve]

Compound	activity change, negative = inhibition	Potency
Cn1c(-c2ccccc2)cnc1SCc1nc2ccccc2c(=O)[nH]1		inconclusive: 79.4 µM [inhibitor, single point]
CCCCCc1ccc(C(=O)CCCC)c(=S)[nH]1		inconclusive: 35.5 µM [inhibitor, full curve]
CCCC1(C(=O)OCC)NC(c2ccc(N(C)C)cc2)C2C(=O)N(c3ccccc3)C(=O)C21 (stereo unspecified)	inactive: -37.9%	
Nc1n[nH]c(N)c1N=Nc1cccc(F)c1		active: 39.8 µM
Cc1ccc(-c2nnc(SCC(=O)CC(=O)Nc3ccccc3)n2-c2ccccc2)cc1		inconclusive: 89.1 µM [inhibitor, single point]
CC(=O)c1cccc(NC(=O)CSc2ccc(-c3sc(C)nc3C)nn2)c1	inactive: -13.2%	
Cc1c(C(=O)N(Cc2ccc(N(C)C)cc2)CC2CCCO2)oc2ccc(Br)cc12 (stereo unspecified)		active: 10 µM
CC1=C(c2ccccc2)C(=S)NC(C)(C)C1		inconclusive: 79.4 µM [inhibitor, single point]
CC(=O)Nc1ccc(CNc2ncnc3ccc(-c4c(C)noc4C)cc23)cc1		inconclusive: 89.1 µM [inhibitor, single point]
O=C(NNC(=O)c1cccc(C(F)(F)F)c1)c1ccncc1		inconclusive: 89.1 µM [inhibitor, single point]
CC1CCN(S(=O)(=O)c2nnc(NC(=O)c3cccc(F)c3)s2)CC1		inconclusive: 89.1 µM [inhibitor, partial curve]
Cc1sc2nc(CSCC(=O)Nc3ccc(N4CCOCC4)cc3)[nH]c(=O)c2c1C		inconclusive: 1.58 µM [inhibitor, partial curve, poor fit]
COCCn1nnnc1C(c1ccc(OC)cc1)N1CCN(c2ccccc2F)CC1 (stereo unspecified)		inconclusive: 89.1 µM [inhibitor, single point]
Cn1c(Cc2ccc(Cl)cc2)nnc1SCC(=O)NC1CC1	inactive: 1.75%	
Cc1ccc(C(=O)N2CCN(C3c4cccc5cccc(c45)C3NS(=O)(=O)c3ccccc3)CC2)cc1 (stereo unspecified)	inactive: -31.2% [at 57.1 µM]	
Cc1cccc(N2CCN(C(=O)c3ccc4c(c3)c(C)c(C)n4C)CC2C)c1 (stereo unspecified)		active: 22.4 µM
Cc1ccc(NC(=O)c2cc(S(=O)(=O)N3CCCC3)c[nH]2)c(C)c1		inconclusive: 44.7 µM [inhibitor, partial curve]
O=[N+]([O-])c1ccc(/C=[N+](\[O-])[C@@H]2CCCC[C@@H]2/[N+]([O-])=C/c2ccc([N+](=O)[O-])o2)o1		active: 2.51 µM
CN1CCCN(Cc2ccccc2C(F)(F)F)CC1		active: 50.1 µM
Cc1cc(/C=N/Nc2ccc([N+](=O)[O-])cn2)c(C)n1-c1ccc(C(=O)O)cc1		active: 50.1 µM
Cc1ccc(S(=O)(=O)Cc2nc(-c3ccc(C(=O)NCc4ccccc4F)cc3)oc2C)cc1		inconclusive: 89.1 µM [inhibitor, single point]
O=C(c1ccc(CS(=O)(=O)c2c(Cl)cccc2Cl)o1)N1CCN(c2ccccc2)CC1		inconclusive: 39.8 µM [inhibitor, partial curve]

Compound	activity change, negative = inhibition	Potency
CCC(C)NCCOc1cccc(Br)c1 (stereo unspecified)	inactive: -25.9%	
CCOc1cc(CNCc2ccccc2)ccc1OCc1ccc(Cl)cc1	inactive: 13.4%	
COc1ccccc1NC(=S)N1CCN(C(c2ccccc2)c2ccccc2)CC1		inconclusive: 70.8 µM [inhibitor, single point]
Cc1cc(C)c(C)c(OCCOCCN2CCN(C)CC2)c1		inconclusive: 79.4 µM [inhibitor, single point]
Cc1ccc(Cl)cc1NC(=O)C1C2CCC(O2)C1C(=O)O (stereo unspecified)	inactive: -0.494%	
O=C1NC(Cc2c[nH]c3ccccc23)C(=O)N1Cc1cccc2ccccc12 (stereo unspecified)		inconclusive: 50.1 µM [inhibitor, partial curve]
C#CCOCCOCCOCCNc1nc(N2CCN(C(=O)[C@H]([C@@H](C)CC)n3cc([C@@H](N)CC(C)C)nn3)CC2)nc(N2CCN(C(=O)[C@H](Cc3cc4ccccc4[nH]3)n3cc([C@@H](N)Cc4ccc(O)cc4)nn3)CC2)n1		active: 50.1 µM
COc1ccc(-c2cc3ccccc3n2CC(O)CN2CCC(C)CC2)cc1 (stereo unspecified)		active: 50.1 µM
CCc1ccc(NC(=O)c2ccc3c(c2)C(=O)N(Cc2ccco2)C3=O)cc1		inconclusive: 50.1 µM [inhibitor, partial curve]
Cc1ccc(-c2csc(N/N=C/c3ccco3)n2)cc1		inconclusive: 25.1 µM [inhibitor, single point]
C#CCOCCOCCOCCNc1nc(N2CCN(C(=O)Cn3cc(CCO)nn3)CC2)nc(N2CCN(C(=O)[C@H](C(C)C)n3cc(CCO)nn3)CC2)n1		inconclusive: 89.1 µM [inhibitor, single point]
CCOC(=O)C1=C(NC(=S)NC(=O)c2ccccc2)c2ccccc2CC1(C)C		inconclusive: 50.1 µM [inhibitor, partial curve]
Oc1ccccc1C=NC1=NN(c2cccc(C(F)(F)F)c2)CC1		inconclusive: 79.4 µM [inhibitor, single point]
COc1ccccc1NC(=O)CSc1nnc(-c2ccccn2)n1Cc1ccco1		inconclusive: 100 µM [inhibitor, single point]
CCOC(=O)C1=C(O)/C(=C/c2ccc(CNC(=O)C(=O)Nc3ccc(C)cc3)o2)N=C1C		active: 50.1 µM
Cc1ccc(Cl)cc1N1CCN(C(=O)c2ccc(C)c(-n3c(C)nc4cccnc43)c2)CC1		inconclusive: 79.4 µM [inhibitor, single point]
CCc1nc2ccc(C(=O)N3CCN(c4ccc(Cl)cc4)CC3)cc2nc1CC		inconclusive: 25.1 µM [inhibitor, full curve]
Cc1ccc2nc(SCc3ccc([N+](=O)[O-])cc3)[nH]c2c1		inconclusive: 10 µM [inhibitor, partial curve]
CC(C)CNC(=O)C1CCCN1S(=O)(=O)c1ccc(Cl)cc1 (stereo unspecified)		inconclusive: 89.1 µM [inhibitor, single point]
Cc1ccc(C(=O)Nc2nc(=O)n(C(=O)C3CC3)s2)cc1		inconclusive: 89.1 µM [inhibitor, single point]
COc1ccc(NC(=S)N(CCc2c(C)[nH]c3ccccc23)Cc2cccnc2)cc1		active: 35.5 µM
O=C(CSc1ccc2ccccc2c1)Nc1ccc(S(=O)(=O)Nc2nccs2)cc1		inconclusive: 35.5 µM [inhibitor, partial curve]
